Experiment [1] addresses T1, URT1-GFP (UTP: RNA uridylyltransferase, 35S-URT1-GFP) (Arabidopsis thaliana) (UniProt O64642).
T1 sequence: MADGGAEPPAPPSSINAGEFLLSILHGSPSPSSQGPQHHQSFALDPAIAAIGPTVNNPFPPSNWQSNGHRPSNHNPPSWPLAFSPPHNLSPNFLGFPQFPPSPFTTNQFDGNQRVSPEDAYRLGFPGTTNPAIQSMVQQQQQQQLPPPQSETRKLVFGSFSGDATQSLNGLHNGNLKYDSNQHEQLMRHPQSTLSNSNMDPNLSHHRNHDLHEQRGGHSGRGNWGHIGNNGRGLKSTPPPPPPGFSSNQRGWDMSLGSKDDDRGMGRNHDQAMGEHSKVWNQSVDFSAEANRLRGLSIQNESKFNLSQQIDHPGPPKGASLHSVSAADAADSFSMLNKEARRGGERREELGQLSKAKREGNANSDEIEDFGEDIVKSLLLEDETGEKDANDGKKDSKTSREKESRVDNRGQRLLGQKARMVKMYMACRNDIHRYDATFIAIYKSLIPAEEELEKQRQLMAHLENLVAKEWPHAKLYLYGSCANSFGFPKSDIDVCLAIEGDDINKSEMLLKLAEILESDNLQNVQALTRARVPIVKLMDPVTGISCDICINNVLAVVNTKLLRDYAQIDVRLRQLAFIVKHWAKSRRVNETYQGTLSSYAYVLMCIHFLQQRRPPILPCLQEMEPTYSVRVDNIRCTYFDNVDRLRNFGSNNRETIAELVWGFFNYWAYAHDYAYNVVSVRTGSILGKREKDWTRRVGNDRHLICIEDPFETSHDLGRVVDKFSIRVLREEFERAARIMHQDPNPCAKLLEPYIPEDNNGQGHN
The experiment in a line: co-IP; S6D Fig; URT1-GFP with 10xMYC-AGO1 or 10xMYC-DCL3 (aa1-280); with treatment of RNAse A (50 μg/ml); which beads were used is not told.

Experiment [2] addresses T2, URT1^P618L-GFP (35S-URT1^P618L-GFP) (Arabidopsis thaliana) (UniProt O64642).
T2 sequence: T1 sequence with P618L
The experiment in a line: co-IP; 10xMYC-AGO1 and GFP tagged proteins co-expressed in N. benthamiana leaves with P19; extracts incubated with anti-GFP-protein G-agarose beads for 4 hrs to overnight; blot with anti-MYC.

In experiment [3] the target is T1, URT1-GFP (UTP: RNA uridylyltransferase, 35S-URT1-GFP) (Arabidopsis thaliana). The experiment is described as above.
In experiment [4] the target is T3, 10xMYC-AGO1 (ARGONAUTE1) (Arabidopsis) (UniProt O04379).
T3 sequence: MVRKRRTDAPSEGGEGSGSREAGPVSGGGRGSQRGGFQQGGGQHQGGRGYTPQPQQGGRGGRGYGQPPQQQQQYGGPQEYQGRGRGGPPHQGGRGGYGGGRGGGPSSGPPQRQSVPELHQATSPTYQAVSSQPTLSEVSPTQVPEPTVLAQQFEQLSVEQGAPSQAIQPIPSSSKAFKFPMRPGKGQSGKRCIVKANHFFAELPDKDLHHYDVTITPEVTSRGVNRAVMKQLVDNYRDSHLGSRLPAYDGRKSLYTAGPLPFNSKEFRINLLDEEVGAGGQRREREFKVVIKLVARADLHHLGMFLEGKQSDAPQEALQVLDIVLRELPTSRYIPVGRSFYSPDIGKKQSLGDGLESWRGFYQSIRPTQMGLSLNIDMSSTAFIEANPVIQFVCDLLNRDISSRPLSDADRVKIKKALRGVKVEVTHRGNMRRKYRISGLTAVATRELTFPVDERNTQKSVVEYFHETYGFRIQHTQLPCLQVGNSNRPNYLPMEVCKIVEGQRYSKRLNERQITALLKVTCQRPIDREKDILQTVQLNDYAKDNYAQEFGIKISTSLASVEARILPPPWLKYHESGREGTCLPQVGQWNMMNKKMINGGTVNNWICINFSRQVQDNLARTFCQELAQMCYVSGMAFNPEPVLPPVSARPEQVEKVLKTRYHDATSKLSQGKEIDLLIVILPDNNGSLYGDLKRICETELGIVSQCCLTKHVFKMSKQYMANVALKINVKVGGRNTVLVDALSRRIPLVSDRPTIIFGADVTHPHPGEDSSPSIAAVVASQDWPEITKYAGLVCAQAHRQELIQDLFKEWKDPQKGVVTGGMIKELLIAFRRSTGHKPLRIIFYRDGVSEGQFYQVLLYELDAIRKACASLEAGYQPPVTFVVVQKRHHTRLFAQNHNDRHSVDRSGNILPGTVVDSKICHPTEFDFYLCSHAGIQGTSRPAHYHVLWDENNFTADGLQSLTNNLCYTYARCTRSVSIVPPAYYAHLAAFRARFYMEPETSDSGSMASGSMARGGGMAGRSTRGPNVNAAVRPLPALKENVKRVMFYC
In words: co-IP; 10xMYC-AGO1 and GFP tagged proteins co-expressed in N. benthamiana leaves with P19; extracts incubated with anti-MYC agarose beads for 4 hrs to overnight; blot with anti-GFP.

Where a chain is given by its changes, count along the chain named. Numbers in names are those of the source. No constants are given. Whether binding was seen depends on the method and setting. In cells and extracts the contact can be indirect. Some binding calls cover weakened binding; strength is not graded here. Sequences can lack the tags named with a protein.

B1: 10xMYC-AGO1 (ARGONAUTE1) (protein, UniProt O04379 1-1048)
chain: T3 sequence
For B1, the binding result in experiment [1], in experiment [2] and in experiment [3] was “binds” each time.

B2: 10xMYC-DCL3 (aa1-280) (domain or fragment, UniProt Q9LXW7 1-280)
chain: MHSSLEPEKMEEGGGSNSLKRKFSEIDGDQNLDSVSSPMMTDSNGSYELKVYEVAKNRNIIAVLGTGIDKSEITKRLIKAMGSSDTDKRLIIFLAPTVNLVKQQCCEIRALVNLKVEEYFGAKGVDKWTSQRWDEEFSKHDVLVMTPQILLDVLRSAFLKLEMVCLLIIDECHHTTGNHPYAKLMKEFYHESTSKPKIFGLTASAVIRKGIVSSPSNYAAQVSELERLMDSKIFNPEEREGVEKFATTVKEGPILYNPSPSCSLELKEKLETSHLKFDAS
With B2, the binding entry in experiment [1] is reported as “no binding”.

B3: URT1-GFP (UTP: RNA uridylyltransferase, 35S-URT1-GFP) (enzyme, UniProt O64642 1-764)
chain: T1 sequence
Regarding B3, the binding entry in experiment [4] was “binds”.

B4: URT1^P618L-GFP (35S-URT1^P618L-GFP) (enzyme, UniProt O64642 1-764)
chain: T1 sequence with P618L
Take B4: the binding result in experiment [4] is listed as “binds”.

The values above are taken from article PMC4415790.
